# This is one part of the list.
# Biological target: T1, OsWOX13 (Oryza sativa, UniProt Q5QMM3 1-267)
# T1 sequence: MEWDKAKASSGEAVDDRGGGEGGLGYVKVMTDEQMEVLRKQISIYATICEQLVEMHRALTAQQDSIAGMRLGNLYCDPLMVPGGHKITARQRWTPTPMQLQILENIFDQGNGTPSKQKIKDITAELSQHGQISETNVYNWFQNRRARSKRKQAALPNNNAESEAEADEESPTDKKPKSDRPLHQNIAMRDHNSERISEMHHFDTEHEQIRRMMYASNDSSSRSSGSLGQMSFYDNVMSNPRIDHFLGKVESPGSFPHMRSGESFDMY
# Assay: protein-binding microarray (RPBM); PBS, 2% BSA, 51.3 ng/ul salmon testes DNA, 50 uM zinc acetate, 200 nM TF, 25 C, 1 h; high values mean tight binding
# Settings: protein: recombinant; tags: N-terminal polyhistidine and DsRed monomer fusion (pET32a); label: CyDye5-dUTP incorporated in the synthesized complementary strand; 3' TTTTT single-stranded linker to array surface; dsDNA, one strand shown
# In short: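 Using Ni–NTA, transcription factors fused N-terminally to polyhistidine and DsRed were purified after expression in E. coli BL21-CodonPlus. These were incubated at 200 nM with a blocked, double-stranded custom Agilent array for 1 h at 25 °C in a buffer containing 50 µM zinc acetate, and the array was washed. The binding signal is per-feature fluorescence intensity (arbitrary units) on an Axon 4000B scanner.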
row,Sequence,binding signal
1,CCTACGCACCAATCACAGCACATAATGTACAACATACCTACGGAGTCACCTAGTGCAG,17900 fluorescence intensity (a.u.)
2,TTGACAGAACATGCATCAAGTCACCACCAACAACATTTGCCGGAGTCACCTAGTGCAG,3660 fluorescence intensity (a.u.)
3,CAGATTAAAGATTTGAACTGAACTGAACTGAACTGACACTCGGAGTCACCTAGTGCAG,3790 fluorescence intensity (a.u.)
4,GTAGGCTGATTTATAATAATTTATGTGTATTGCGCTATAGCGGAGTCACCTAGTGCAG,39400 fluorescence intensity (a.u.)
5,ATGAATGAATTACATATCATTATGTATCGTCGCACCCTGTCGGAGTCACCTAGTGCAG,6700 fluorescence intensity (a.u.)
6,CGTGATGACTGCTACGAGCATGAATTAATGCTTCTAGTTACGGAGTCACCTAGTGCAG,8600 fluorescence intensity (a.u.)
7,TCAATGAACTATTAGATTGGCTATAAATAAATTGGAGCTACGGAGTCACCTAGTGCAG,21300 fluorescence intensity (a.u.)
8,GTTAATGAATCTAGACATATACATCTATCTAGATTCATTACGGAGTCACCTAGTGCAG,5660 fluorescence intensity (a.u.)
9,TTACACTACTTAATTTGTTTAATTTAATTAACTCAACGCCCGGAGTCACCTAGTGCAG,19000 fluorescence intensity (a.u.)
10,GGGCCAAATTTTATCGAGAAGATTAGACACGAGTATGGGCCGGAGTCACCTAGTGCAG,3490 fluorescence intensity (a.u.)
11,GTATCAATTAGTATCTGAAGAGGTGGGCATCGTATTTCCTCGGAGTCACCTAGTGCAG,13000 fluorescence intensity (a.u.)
12,TTCGAGTAATTAATTAAGCTCCGACCACGAAGCTTCTGGCCGGAGTCACCTAGTGCAG,26000 fluorescence intensity (a.u.)
13,GTTTTCTAATGATGGCACTAATTTCTTTCTTCTACTAACTCGGAGTCACCTAGTGCAG,5420 fluorescence intensity (a.u.)
14,ATTAATAGGACAGATCACAAAATTGTTCATTGGAAAACTTCGGAGTCACCTAGTGCAG,6160 fluorescence intensity (a.u.)
15,TGTAACTGGTAACATGCATGTACACATCCAGGCTTGCATGCGGAGTCACCTAGTGCAG,6030 fluorescence intensity (a.u.)
16,CTAGTAGTTTATTTATTGACAAGATTGCCACGTAACCGAACGGAGTCACCTAGTGCAG,12200 fluorescence intensity (a.u.)
17,TAGATTGATCGGACTAACCACCCCATTTTACACCATTTGCCGGAGTCACCTAGTGCAG,20900 fluorescence intensity (a.u.)
18,GTGTGATTACAAAGCCACACGATATTTGTGAGTCGCCGCGCGGAGTCACCTAGTGCAG,9670 fluorescence intensity (a.u.)
19,AATGTGATAACAGAGAAATTACTTGATGAGGCAAGTTAATCGGAGTCACCTAGTGCAG,9130 fluorescence intensity (a.u.)
20,GATTCATTTAACAATTATATGAATGTGGGAAATGCTAGAACGGAGTCACCTAGTGCAG,3910 fluorescence intensity (a.u.)
21,TCGATTGACTGCATCTTTTCCTGAAAGTGAACATGCAGTGCGGAGTCACCTAGTGCAG,32500 fluorescence intensity (a.u.)

row,Sequence,binding signal
1,TTATGTAATTAGCTTACTGTAGCCATCAGGTTTTGTCACTCGGAGTCACCTAGTGCAG,13300 fluorescence intensity (a.u.)
2,TTTTATTTCTTGTTGATTACAGGATCAAATCAACTGGCACCGGAGTCACCTAGTGCAG,5660 fluorescence intensity (a.u.)
3,GACCTAATTATCGATCGATCGATCGAGCTGACCCGGAAATCGGAGTCACCTAGTGCAG,10500 fluorescence intensity (a.u.)
4,ACTAATTAGTTGGCGGGTAACCATTCCAAATCAACACATTCGGAGTCACCTAGTGCAG,43000 fluorescence intensity (a.u.)
5,ACTGATAACATATATAACAGAGGAATACATTTTGCTCAGTCGGAGTCACCTAGTGCAG,6660 fluorescence intensity (a.u.)
6,TTATAATTAAGTAGAGTAGGAGGAAGGATTAAGGAAGGAGCGGAGTCACCTAGTGCAG,3370 fluorescence intensity (a.u.)
7,GGACATCATGATTAGCATGTTATGAGGGATCACTATACTTCGGAGTCACCTAGTGCAG,24400 fluorescence intensity (a.u.)
8,CTTGATGGGATGGGATCTCACTCTGCTTTAATCGCACTCGCGGAGTCACCTAGTGCAG,18900 fluorescence intensity (a.u.)
9,CAATTGAAATTACTAACTGAAGTTCATTCCAATCCAATTGCGGAGTCACCTAGTGCAG,4940 fluorescence intensity (a.u.)
10,GCTGACTTTGCATTTATTTAGATTTAAAATTGCAAGCTTGCGGAGTCACCTAGTGCAG,6250 fluorescence intensity (a.u.)
11,ATAATTATCATTTCATTCGTATTATCGATGCATGTGAGGACGGAGTCACCTAGTGCAG,9310 fluorescence intensity (a.u.)
12,TCCCAATCACCAACTGCCCAGCTCCATTCCTCACCCAACACGGAGTCACCTAGTGCAG,10600 fluorescence intensity (a.u.)
13,AGCATGATTTCCAGTTAGAGTTACCAAAATTTGGCTTAAACGGAGTCACCTAGTGCAG,12800 fluorescence intensity (a.u.)
14,ACTTGATGGAATAATTTAAAAGAAAGTGTCAGCATTTTAACGGAGTCACCTAGTGCAG,9540 fluorescence intensity (a.u.)
15,CTACCAAATTGATGGTCCCAAATGTTCCTCCGTTTCCATGCGGAGTCACCTAGTGCAG,25700 fluorescence intensity (a.u.)
16,CAAGTCACCCAATCATCATCATCAAACGCCAACCAACAGCCGGAGTCACCTAGTGCAG,5950 fluorescence intensity (a.u.)
17,CTACACGCATAATTAATTGAGCTTTAACTATTACTCCCTTCGGAGTCACCTAGTGCAG,12100 fluorescence intensity (a.u.)
18,AATGACAGCTGTACTGTGATCCTTATTTTGACTATTCTTGCGGAGTCACCTAGTGCAG,4870 fluorescence intensity (a.u.)
19,ATTCAATTTATGTCTCTCGAAAATAGATATGAACATACTTCGGAGTCACCTAGTGCAG,3690 fluorescence intensity (a.u.)
20,TTTGATGTGACATGATGTAAAGTTTTGGGATGGGATCTAACGGAGTCACCTAGTGCAG,18000 fluorescence intensity (a.u.)
21,CCTGTCATTATCTCTTGTGTTAATTTTAATATTTTGGATGCGGAGTCACCTAGTGCAG,4560 fluorescence intensity (a.u.)

# Source: PMC7819943, “Rice protein-binding microarrays: a tool to detect cis-acting elements near promoter regions in rice”
